# Results from the BET-seq Pho4 binding data (Le et al. 2018).
# This is one part of the list. These are noisy estimates, calculated here from bound and input reads.
# Target: T1, Pho4 (S. cerevisiae) (UniProt P07270)
# T1 sequence: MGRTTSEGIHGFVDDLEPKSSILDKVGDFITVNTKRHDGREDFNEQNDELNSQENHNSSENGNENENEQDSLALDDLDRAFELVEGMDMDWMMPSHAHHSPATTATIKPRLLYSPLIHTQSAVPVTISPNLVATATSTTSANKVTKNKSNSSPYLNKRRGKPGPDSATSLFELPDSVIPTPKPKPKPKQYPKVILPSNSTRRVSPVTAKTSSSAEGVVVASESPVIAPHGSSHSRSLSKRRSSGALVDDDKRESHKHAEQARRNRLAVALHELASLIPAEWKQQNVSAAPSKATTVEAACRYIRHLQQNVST
# Assay: relative binding free energy (BET-seq); higher = weaker binding
# Settings: reference: library average
row,Sequence,relative binding free energy [kcal/mol]
1,AGGTCCACGTGGGTGC,-0.09
2,TGTGTCACGTGCCTGG,-0.09
3,GGTTACACGTGTAGAG,0.09
4,CAGTACACGTGGTGAG,0.07
5,TCCGTCACGTGGTTGT,-0.05
6,ATTTACACGTGATTGG,0.08
7,ATACTCACGTGTATTT,0.12
8,TCATGCACGTGTGGTC,0.01
9,TGTAGCACGTGAGTGA,0.01
10,ATGGACACGTGGAAGG,0.08
11,GTCGGCACGTGGTCGA,-0.07
12,GGGCTCACGTGAGTGG,0.45
13,GGGCCCACGTGGTTGT,-0.16
14,AGTTCCACGTGGTTTA,0
15,GGTTGCACGTGGTTGT,-0.03
16,TATTGCACGTGAAGGA,0.14
17,TTGTGCACGTGTCTGG,0.17
18,TTTGTCACGTGGCAGA,-0.04
19,GATGGCACGTGAAGAT,0.31
20,GTCCGCACGTGGTTTG,-0.12
21,TTAGACACGTGTTTCT,-0.04
22,GGTAACACGTGTTGCT,0.02
23,TTATGCACGTGGCCAG,-0.09

row,Sequence,relative binding free energy [kcal/mol]
1,GGGTACACGTGATAAT,0.32
2,CGTGACACGTGTTGAA,0.08
3,TATTTCACGTGGTAAA,0.33
4,AATTGCACGTGATTGG,0.03
5,ATGAACACGTGGGAAG,-0.04
6,GGTGTCACGTGATTGA,0.22
7,GAGTTCACGTGGCCGG,0.4
8,GGAGACACGTGTGACG,0.15
9,TAGGACACGTGATTTG,0.19
10,AAGTCCACGTGCTGTG,0.03
11,TTGCTCACGTGTAGGC,0.23
12,TGTTGCACGTGGAATA,0.02
13,TACATCACGTGGTGGC,0.13
14,CGCATCACGTGGGGGT,-0.1
15,GGGGACACGTGTTGCG,0.08
16,TATTTCACGTGGGTGG,0.27
17,TGTAGCACGTGTGGGA,-0.05
18,CTCTGCACGTGGTTAG,-0.03
19,AGGTTCACGTGGTGCC,0.28
20,CGGGTCACGTGAGAGT,0.27
21,GTAGTCACGTGCGTTA,0.08
22,GGCTGCACGTGTGGGT,0.09
23,CAGGGCACGTGTAAGT,0.01

row,Sequence,relative binding free energy [kcal/mol]
1,GGTGCCACGTGGTATT,-0.1
2,ACGGCCACGTGTGGGT,-0.05
3,TGTTACACGTGTTAAC,0.13
4,AAGTGCACGTGGATAT,0.05
5,AAGGACACGTGGGGAC,0
6,AGGCGCACGTGGTTGT,-0.13
7,GGGAACACGTGCCGGG,0.05
8,TCAGGCACGTGTTTGT,-0.09
9,TAGATCACGTGGGGTA,0
10,GTGAGCACGTGTTGCG,-0.16
11,TAAGGCACGTGGGTTC,-0.08
12,TAGTACACGTGGGTAA,-0.01
13,GGTTGCACGTGAAGGT,0.27
14,TTGGGCACGTGGCGTC,-0.14
15,TTGTCCACGTGTTCTA,0.17
16,GTTTGCACGTGCGCTG,0.14
17,TGTGTCACGTGTTCAA,-0.06
18,CTGCGCACGTGGGGGT,-0.3
19,GGGCTCACGTGGTGGT,0.09
20,TTGATCACGTGGGTTG,-0.02
21,GGTGTCACGTGTGAAC,0.15
22,TGCGCCACGTGAGTGG,0.1
23,AGGGACACGTGGTTAA,-0.01

row,Sequence,relative binding free energy [kcal/mol]
1,TGGGGCACGTGAGGGC,0.11
2,GTAAGCACGTGGGAAG,0.04
3,CAGTTCACGTGAGTTG,0.33
4,CTTGTCACGTGTTTGA,0.1
5,GTTGGCACGTGGTGCC,-0.05
6,TCGTGCACGTGTGATA,0.03
7,TAGGGCACGTGTAGTT,0.06
8,ACATGCACGTGTTGTG,-0.16
9,TAGGGCACGTGCGCAT,-0.2
10,TATTTCACGTGGAATT,0.32
11,TTACGCACGTGGTTAG,-0.15
12,CGTTTCACGTGTATGC,0.27
13,GGGGTCACGTGATTCT,0.25
14,GGATTCACGTGGTGGA,0.23
15,GTGTCCACGTGTAAGT,0.11
16,ACGGTCACGTGGGGGA,-0.03
17,TAGGGCACGTGGGGGG,-0.22
18,GTTGACACGTGGGAAA,-0.02
19,TCGGTCACGTGAATGT,0.37
20,GAGCACACGTGTGAGG,0.22
21,AAGTACACGTGGGATG,-0.08
22,TACGTCACGTGCTGGG,-0.11
23,TAATGCACGTGTAGGA,0.07

row,Sequence,relative binding free energy [kcal/mol]
1,TAACGCACGTGGTGCG,-0.1
2,TGATTCACGTGTCATG,0.28
3,GGGGTCACGTGTAGCT,0.12
4,GTGGACACGTGACGTT,0.12
5,CTTGGCACGTGGAGAA,0
6,GATCGCACGTGTGTGT,-0.01
7,GTTCTCACGTGGTTGG,0.19
8,AGATTCACGTGAGGTT,0.39
9,AAATGCACGTGGTGCT,0
10,TTTTACACGTGTGGAC,0.11
11,TGAAGCACGTGTAGTG,0.01
12,GTTGACACGTGGAATG,0.24
13,TTTAACACGTGTGTCG,0.04
14,TTTTGCACGTGTCGAC,0.13
15,GGATTCACGTGGGTGT,0.15
16,CAGGGCACGTGGTTGT,-0.19
17,GGTCCCACGTGGTAGT,0.02
18,TCGTACACGTGTATTT,0.22
19,AGGTCCACGTGTAGTG,-0.05
20,TTTTACACGTGCGGGC,0.2
21,GGTGGCACGTGTGCAG,-0.03
22,TGGAACACGTGGTATG,-0.08
23,TTCCTCACGTGATTGT,0.45
